# Results from publication PMC4336329 (PLoS ONE, 2015).
# In all, about 310,000 compounds went through this assay and about 2,200 (0.71%) showed an effect of 50% or more. The effect is printed as a negative number. The list shows a part of the results.
# Molecular target: human ether-à-go-go-related gene (hERG) potassium channel (human, UniProt Q12809)
# Test: primary screen, population patch clamp on CHO cells stably expressing hERG
# human ether-à-go-go-related gene (hERG) potassium channel, sequence (Q12809 whole entry, looked up): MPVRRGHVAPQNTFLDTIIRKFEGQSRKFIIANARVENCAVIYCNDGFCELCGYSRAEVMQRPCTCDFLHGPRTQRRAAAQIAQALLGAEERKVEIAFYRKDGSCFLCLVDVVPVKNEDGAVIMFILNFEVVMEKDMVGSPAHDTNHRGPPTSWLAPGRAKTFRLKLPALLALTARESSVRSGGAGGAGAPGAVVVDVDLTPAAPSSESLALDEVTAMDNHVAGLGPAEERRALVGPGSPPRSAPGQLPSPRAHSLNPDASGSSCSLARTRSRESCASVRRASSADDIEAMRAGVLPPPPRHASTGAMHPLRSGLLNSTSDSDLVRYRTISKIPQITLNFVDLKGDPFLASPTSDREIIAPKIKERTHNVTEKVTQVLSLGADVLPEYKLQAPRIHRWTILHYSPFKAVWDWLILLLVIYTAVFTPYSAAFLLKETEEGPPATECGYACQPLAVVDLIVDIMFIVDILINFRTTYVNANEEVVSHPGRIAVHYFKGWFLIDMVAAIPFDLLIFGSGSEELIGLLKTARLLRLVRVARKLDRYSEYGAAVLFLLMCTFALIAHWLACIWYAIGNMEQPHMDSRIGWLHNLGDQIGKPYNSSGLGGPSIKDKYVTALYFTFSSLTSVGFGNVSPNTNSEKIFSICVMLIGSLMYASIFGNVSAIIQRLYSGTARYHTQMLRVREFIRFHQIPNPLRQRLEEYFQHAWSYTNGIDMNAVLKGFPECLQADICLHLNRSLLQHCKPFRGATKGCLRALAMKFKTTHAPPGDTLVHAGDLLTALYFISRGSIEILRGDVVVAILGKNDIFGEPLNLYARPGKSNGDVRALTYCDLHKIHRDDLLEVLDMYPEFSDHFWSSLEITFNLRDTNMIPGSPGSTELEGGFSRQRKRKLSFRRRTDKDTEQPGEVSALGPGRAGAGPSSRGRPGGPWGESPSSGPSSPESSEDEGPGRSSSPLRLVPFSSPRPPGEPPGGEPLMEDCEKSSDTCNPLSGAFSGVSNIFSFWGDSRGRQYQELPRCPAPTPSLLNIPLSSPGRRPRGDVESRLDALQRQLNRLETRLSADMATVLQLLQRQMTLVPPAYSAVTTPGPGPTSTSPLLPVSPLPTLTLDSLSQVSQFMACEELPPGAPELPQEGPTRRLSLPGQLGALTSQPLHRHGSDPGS
row,Structure (SMILES),"hERG current change (%, negative = inhibition) at 1uM [%]"
1,O=C(Cn1c(CO)nc2ccccc21)NCc1ccc2c(c1)OCO2,2.96
2,Oc1c(Br)cc(Br)cc1Br,10.5
3,Cn1cnc(S(=O)(=O)N2CCN(c3ccc(F)cc3)CC2)c1,3.15
4,CCCCNC(=O)c1sc2ncnc(N3CCc4ccccc4C3)c2c1C,-29.2
5,O=C(CCC1CC(=O)Nc2ccccc21)NCc1cccnc1 (centres unmarked),8.67
6,CCCCNC(=O)COC(=O)c1c2c(nc3ccccc13)/C(=C/c1cccs1)CC2,0.752
7,CC(=O)N[C@@H](CC(=O)N[C@H](CCC(=O)O)C(=O)O)C(=O)O,3.48
8,Cc1cccc(NC(=O)C23CCC(C)(C(=O)O2)C3(C)C)c1 (centres unmarked),14.8
9,O=C(O)CCC(NS(=O)(=O)c1ccc(N2CCCC2=O)cc1)C(=O)O (centres unmarked),1.6
10,C[C@@]12C(=O)N(Cc3ccc(-c4ccccc4)cc3)CC(=O)N1[C@H](/C=C/c1ccccc1)[C@@H]1C(=O)N(c3ccccc3)C(=O)[C@@H]12,4.62
11,O=C(CNC(=O)c1ccccc1O)N/N=C/c1cc(Br)ccc1OC(=O)/C=C/c1ccco1,7.4
12,COc1cccc(NC(=O)Cn2c(=O)n(-c3ccccc3)c(=O)c3oc4ccccc4c32)c1,10.6
13,Cc1nnc2c3ccccc3c(-c3cccs3)nn12,13.6
14,CC(Sc1nnnn1C)C(=O)Nc1ccccc1-c1ccccc1 (centres unmarked),19.8
15,Cc1cccc(-c2nnc(SC(C)C(=O)N3CCOCC3)o2)c1 (centres unmarked),13.1
16,O=C(Oc1coc(CSc2nnc(NC(=O)c3cccs3)s2)cc1=O)c1ccccc1,14.4
17,O=C(CN1c2ccccc2S(=O)(=O)c2ccccc21)NCc1ccc(F)cc1,1.88
18,NS(=O)(=O)c1ccc(S(=O)(=O)N(CCc2ccccc2)Cc2ccccn2)cc1,11
19,COc1ccc(NC(=O)CSCC(=O)N(C)Cc2ccc(Cl)c(Cl)c2)cc1,11.7
20,Nc1cc(=O)[nH]c(SCc2csc(-c3ccccc3)n2)n1,3.84
21,CC(C)(C)c1ccc(OCc2ccc(C(=O)N/N=C3\CC4CC=CC34)cc2)cc1 (centres unmarked),5.55
22,Cc1nc2nc(SCc3nc4ccccc4[nH]3)[nH]c2cc1Br,10

row,Structure (SMILES),"hERG current change (%, negative = inhibition) at 1uM [%]"
1,COC(=O)C1=C(c2ccc(C(C)=O)cc2)C[C@@H]2CC[C@H]1N2C(=O)NC(C)C,14.9
2,COc1cc(S(=O)(=O)N2CCOCC2)c(OC)c(S(=O)(=O)N2CCOCC2)c1,13.1
3,CN1C(C)(C)c2ccccc2OS1(=O)=O,0.0609
4,O=C(NC1=NCCS1)c1cc2ccccc2o1,-20.6
5,Cc1ccc(N/N=C(\C#N)C(=O)c2ccsc2)cc1,5.25
6,CC(=O)Nc1ccc(C(=O)COC(=O)CCN2C(=O)C3CC=CCC3C2=O)cc1 (centres unmarked),15.4
7,CC(=O)N(c1ccc(C(C)C)cc1)C1C=CS(=O)(=O)C1 (centres unmarked),8.44
8,Cc1ccccc1NC(=O)c1[nH]cnc1C(=O)NN,9.06
9,CCCC(=O)Nc1ccc(C(=O)Nc2nc(CC(=O)OCC)cs2)cc1,10.8
10,O=C(c1cc[n+]([O-])cc1)N1CCCC(N2CCN(c3cccc(C(F)(F)F)c3)CC2)C1 (centres unmarked),9.33
11,Cc1cc(S(=O)(=O)N(Cc2ccccn2)Cc2ccco2)ccc1-n1cnnn1,2.5
12,COc1ccc(C)cc1NC(=O)CN1CCN(S(=O)(=O)c2ccc(Br)cc2)CC1,5.24
13,CC1CC(C)CN(c2ncnc3c2cnn3Cc2ccc(Cl)cc2)C1 (centres unmarked),-4.81
14,C=CCC(O)(CC=C)CNC(=O)c1ccc(OC)c(OC2CCN(C(C)=O)CC2)c1,14.7
15,COc1ccccc1C(=O)NC(=O)CSc1nc2nc(C)cc(C)n2n1,11
16,COc1ccc(N(CC(=O)NCCC2=CCCCC2)S(=O)(=O)c2ccccc2)cc1,13
17,CC(=O)N1CCN(S(=O)(=O)c2cccc(C(=O)OCN3C(=O)c4ccccc4C3=O)c2)CC1,6.18
18,C[C@@H](C(=O)N[C@@H](Cc1ccccc1)C(=O)O)n1nnc2ccccc2c1=O,9.59
19,COc1ccc([C@H](NC(=O)OC(C)(C)C)C(=O)OC(C)(C)C)cc1,12.2
20,CCOc1ccc(-n2nnc3c(=O)n(CC(=O)Nc4cc(C)on4)cnc32)cc1,7
21,Cc1ccc(S(=O)(=O)N(CC(=O)NCC2CCCO2)Cc2ccc(F)cc2)cc1 (centres unmarked),10.3
22,O=C(N/C(=C\c1cccc([N+](=O)[O-])c1)C(=O)N1CCOCC1)c1ccco1,8.62

row,Structure (SMILES),"hERG current change (%, negative = inhibition) at 1uM [%]"
1,Cc1c(C)n(C)c2ccc(C(=O)N3CCN(c4ccccc4)CC3)cc12,8.98
2,CCOC(=O)c1ccc(NC(=O)CSc2nnc(Cc3cccs3)n2C)cc1,10.6
3,Cc1cc(Br)ccc1NC(=O)CN1C(=O)CCC1=O,12.7
4,CCn1ccnc1CN(C)Cc1cn(-c2ccc(C)cc2)nc1-c1cccc(C)c1,10.3
5,COc1cccc(Oc2coc3cc(OC(=O)N4CCOCC4)ccc3c2=O)c1,4.02
6,CC(=O)c1cccc(OCC(=O)Nc2cc(Cl)ccc2-n2cncn2)c1,0.225
7,CCc1ccc(C(=O)NNC(=O)c2ccc(OCC(=O)N3CCOCC3)c(OC)c2)cc1,16.7
8,COc1ccc(C(=O)Nc2nc(-c3ccc([N+](=O)[O-])cc3)c(-c3ccc(OC)cc3)s2)cc1,16.8
9,Cc1c(C(=O)N2CCCCCC2)nnn1-c1nonc1N,8.3
10,Oc1ccccc1-c1nc2cnccn2c1Nc1ccc2c(c1)OCCO2,4.77
11,COc1cccc2cc(-c3ccccc3)c(=O)oc12,4.4
12,CCc1cc2c(=O)c(-c3nc4ccccc4n3C)c(C)oc2c(CN2CCOCC2)c1O,12.2
13,NS(=O)(=O)c1ccc(CCNC(=O)c2ccccc2[N+](=O)[O-])cc1,17.6
14,O=C(CC1NC(=O)NC1=O)Nc1cccc2ccccc12 (centres unmarked),-12.6
15,Cc1ccc(NC(=O)Nc2nnc(Cc3ccc([N+](=O)[O-])cc3)s2)cc1C,16.5
16,CC(C)(C)OC(=O)C(C)(C)O/N=C(\C(=O)O)c1csc(N)n1,20.7
17,O=C(COc1ccccc1)Nc1ccccc1N1CCN(c2ccc(F)cc2)CC1,16.9
18,Cc1cc(C(=O)N2CCN(c3ccccc3)CC2)c(C)o1,7.91
19,CN(c1ccc(OCC(=O)N2CCN(C/C=C/c3ccccc3)CC2)cc1)S(=O)(=O)c1cccs1.Cl,9.94
20,CN(C)C=Nc1ncc2c3ccccc3n(Cc3ccccc3)c2c1C#N,9.29
21,CC(C)CC(=O)NC(=S)Nc1cccc(NC(=O)c2ccccc2)c1,-11.4
22,CCOC(=O)CSc1nnc(CNC(=O)Cc2ccccc2)n1C,3.36

row,Structure (SMILES),"hERG current change (%, negative = inhibition) at 1uM [%]"
1,COCCn1c(=NC(=O)/C=C/c2cccs2)sc2cc(NC(C)=O)ccc21,6.09
2,CC1CC(C)CN(S(=O)(=O)c2ccc3c(c2)C(C)(C)C(=O)N3C)C1 (centres unmarked),-2.13
3,COC(=O)/C=C1\SC(=NC(=O)c2ccc(C)cc2)NC1=O,22.1
4,CCOC(=O)c1c(C)oc(NC(=O)COc2ccc(Cl)cc2C)c1C#N,12
5,O=C(CCc1ccccc1)N1N=C(c2ccncc2)CC1(O)C(F)(F)F (centres unmarked),11.5
6,COc1cc(CNc2ccc3[nH]c(=O)[nH]c3c2)ccc1OCc1ccc(Cl)cc1,23.2
7,COc1cccc(NC(=O)c2cccc(Cl)c2)c1,-1.32
8,COc1ccc(CNC(=O)CN2C(=O)CSc3ccc(S(=O)(=O)N4CCCCC4)cc32)cc1,-5.63
9,CCNC(=O)NC1(C(=O)Nc2ccc3c(c2)OCCO3)CCCCC1,4.95
10,CC1(C)Cc2c(sc3ncn4nc(-c5ccco5)nc4c23)CO1,12.1
11,Cc1ccc2cccc(NC(=S)NC(=O)c3c(Br)cnn3C)c2n1,3.43
12,CCOC(=O)Cn1nc(C)cc1NC(=O)c1cc(OC)c(OC)c(OC)c1,14.1
13,COc1ccc(NC(=O)COC(=O)/C=C/c2ccccc2[N+](=O)[O-])cc1OC,8.9
14,Cc1ccc(SCc2ccc(C(=O)Nc3cccnc3)cc2)cc1,10.5
15,CCc1ccccc1N/N=C(/C)c1c(O)cc(C)oc1=O,1.44
16,Cc1nc(N2CCOCC2)c2c(C)c(C(=O)Nc3ccccc3C(F)(F)F)sc2n1,4.86
17,N/C(=N/OS(=O)(=O)c1ccc([N+](=O)[O-])cc1)c1ccncc1,14.6
18,CCOC(=O)Cc1csc(NC(=O)c2cccs2)n1,-2.98
19,CCCNC(=O)Cn1nc([N+](=O)[O-])c([N+](=O)[O-])c1C,5.58
20,COCCN1C(=O)N(C)[C@@H](c2ccccc2)C(C(C)=O)=C1C,6.21
